Experimental data reported in US6383763B1, “Detection of mycobacteria” (priority 1996, dated 2002).
Ends that are not written are not given here.

Molecular target: M. avium filtrate (Mycobacterium avium, UniProt Q06947)
Test: Western blot of M. avium filtrate with murine antiserum against alpha antigen peptides
Type: binding
Conditions: serum of mice immunized with bead-bound peptide

In the case of “QRNDPSLHIPELVGH (also: on polystyrene microparticles) [229 peptide, synthetic peptide of M. avium alpha antigen beginning at residue 229, on polystyrene microparticles]”, the “antigens recognized by the antibody preparation raised against the peptide” value is reported as “recognized the native 30 kD alpha antigen and no other proteins in M. avium filtrate”.
